Measurements taken from publication PMC9845754.
Results are given in words; binding and its absence hold for the method and conditions named. For part of these data: In cells and extracts the contact can be indirect. Some results given as binding are weak or reduced against the parent protein; the word gives no strength. Where a sequence is shown, tags or fusion partners need not be part of it. Values belong to the binder of their own block, whether it stands above or below them.

Chains of the proteins cited; added tags and fusions are not shown. Lines headed by an entry give the natural chain unless they say otherwise; changes in a name come on top. A line that says so, or that is headed by a name, gives the form on record, which may keep a tag or linker.
UniProt O82481: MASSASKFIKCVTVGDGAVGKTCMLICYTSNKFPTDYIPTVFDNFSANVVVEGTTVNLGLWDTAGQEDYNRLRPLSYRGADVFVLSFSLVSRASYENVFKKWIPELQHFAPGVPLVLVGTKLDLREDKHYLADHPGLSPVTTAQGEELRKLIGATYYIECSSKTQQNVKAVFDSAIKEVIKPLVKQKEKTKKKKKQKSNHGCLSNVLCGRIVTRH
YN-rop11CA (constitutively active ROP11 fused at its N-terminus to the N-terminal half of YFP) (O82481, form named): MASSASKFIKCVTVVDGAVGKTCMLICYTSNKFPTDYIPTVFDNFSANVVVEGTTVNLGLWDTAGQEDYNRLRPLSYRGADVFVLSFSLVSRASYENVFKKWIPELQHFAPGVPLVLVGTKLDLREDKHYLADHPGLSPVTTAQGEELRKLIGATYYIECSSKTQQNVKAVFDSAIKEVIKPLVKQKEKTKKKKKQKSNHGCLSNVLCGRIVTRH

How the values were obtained:
[1] = biological target: T1, ICR3 (interactor of constitutively active ROP 3) fused to a half of YFP for BiFC (Arabidopsis) (UniProt Q9LSS5); assay: split reporter; BiFC; YN and YC fusions transiently co-expressed in N. benthamiana leaf epidermis, confocal imaging; for the ICR-ICR pairs lambda stacks excited at 514 nm, emission 521-690 nm, unmixed for the YFP signal
T1 sequence: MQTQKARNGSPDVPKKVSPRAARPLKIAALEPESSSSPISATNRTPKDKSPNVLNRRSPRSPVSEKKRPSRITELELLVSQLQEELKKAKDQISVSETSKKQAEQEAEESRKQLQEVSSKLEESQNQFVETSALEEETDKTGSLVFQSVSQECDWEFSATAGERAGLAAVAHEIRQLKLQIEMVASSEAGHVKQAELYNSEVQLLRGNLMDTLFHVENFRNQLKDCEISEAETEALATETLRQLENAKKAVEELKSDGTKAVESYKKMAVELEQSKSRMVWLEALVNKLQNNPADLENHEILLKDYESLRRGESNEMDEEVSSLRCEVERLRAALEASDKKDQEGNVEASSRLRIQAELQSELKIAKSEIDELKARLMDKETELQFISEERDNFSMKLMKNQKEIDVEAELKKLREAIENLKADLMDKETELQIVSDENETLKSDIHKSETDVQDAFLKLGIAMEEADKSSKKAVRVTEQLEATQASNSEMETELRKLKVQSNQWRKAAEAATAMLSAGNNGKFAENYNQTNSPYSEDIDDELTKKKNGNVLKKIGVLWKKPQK

[2] = biological target: T2, ICR5 (interactor of constitutively active ROP 5) fused to a half of YFP for BiFC (Arabidopsis) (UniProt Q8VYU8); assay: as above
T2 sequence: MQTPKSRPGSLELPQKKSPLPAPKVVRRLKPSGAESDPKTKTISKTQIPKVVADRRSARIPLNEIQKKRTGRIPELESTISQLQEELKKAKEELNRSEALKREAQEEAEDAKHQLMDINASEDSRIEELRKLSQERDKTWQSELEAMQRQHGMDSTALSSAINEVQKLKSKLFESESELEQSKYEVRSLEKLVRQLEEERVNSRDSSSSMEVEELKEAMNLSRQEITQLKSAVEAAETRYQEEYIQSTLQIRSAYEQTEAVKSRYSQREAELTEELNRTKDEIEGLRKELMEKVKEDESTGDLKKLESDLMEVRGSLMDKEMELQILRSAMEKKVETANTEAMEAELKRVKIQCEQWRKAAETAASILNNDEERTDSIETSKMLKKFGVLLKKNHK

[3] = biological target: YN-rop11CA (constitutively active ROP11 fused at its N-terminus to the N-terminal half of YFP) (Arabidopsis) (UniProt O82481); assay: as above
[4] = biological target: T3, ICR3, yeast two-hybrid fusion (Arabidopsis) (UniProt Q9LSS5); assay: two-hybrid; yeast two-hybrid in S. cerevisiae PJ69-4a; pGBT9.BS and pGAD.GH fusions; growth of four decimal dilutions on -Leu -Trp -His medium with 1 mM 3AT, 28°C
T3 sequence: T1 sequence

[5] = biological target: T4, ICR5, yeast two-hybrid fusion (Arabidopsis) (UniProt Q8VYU8); assay: as above
T4 sequence: T2 sequence

[6] = biological target: T5, ICR2, yeast two-hybrid fusion (Arabidopsis) (UniProt Q9ZQC5); assay: two-hybrid; S. cerevisiae PJ69-4a; dilution series 1, 1/10, 1/100, 1/1,000 on -Leu, Trp, His (-LTH) plates with 1 mM 3-AT, -LT plates as growth control; 28°C
T5 sequence: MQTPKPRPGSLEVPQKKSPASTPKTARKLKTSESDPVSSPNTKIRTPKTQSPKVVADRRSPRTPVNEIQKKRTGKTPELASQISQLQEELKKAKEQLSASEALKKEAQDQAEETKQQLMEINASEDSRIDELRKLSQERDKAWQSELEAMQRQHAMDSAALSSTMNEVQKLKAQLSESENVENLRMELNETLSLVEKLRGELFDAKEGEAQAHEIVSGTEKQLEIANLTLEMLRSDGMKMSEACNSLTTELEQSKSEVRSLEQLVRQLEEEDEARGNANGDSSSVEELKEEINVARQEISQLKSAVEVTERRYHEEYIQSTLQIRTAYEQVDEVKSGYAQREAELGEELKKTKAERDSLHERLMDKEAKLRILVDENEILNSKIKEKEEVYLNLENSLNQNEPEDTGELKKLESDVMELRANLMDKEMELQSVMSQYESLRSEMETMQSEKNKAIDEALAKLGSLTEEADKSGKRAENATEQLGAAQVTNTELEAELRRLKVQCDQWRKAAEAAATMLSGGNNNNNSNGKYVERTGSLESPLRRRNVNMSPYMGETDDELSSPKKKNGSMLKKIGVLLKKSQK

[7] = biological target: T3, ICR3, yeast two-hybrid fusion (Arabidopsis); assay: as above
[8] = biological target: T4, ICR5, yeast two-hybrid fusion (Arabidopsis); assay: as above
[9] = biological target: constitutively active ROP11 (rop11CA), yeast two-hybrid fusion (Arabidopsis) (UniProt O82481); assay: as above
[10] = biological target: T6, ICR5-YC (interactor of constitutively active ROP 5 fused to the C-terminal half of YFP) (Arabidopsis) (UniProt Q8VYU8); assay: split reporter; BiFC with halves of YFP (YN, YC), transient expression in N. benthamiana leaf epidermis cells; confocal imaging, for some panels lambda scan 521-690 nm and linear unmixing of the YFP signal
T6 sequence: T2 sequence

YN-ROP11 = YN-ROP11 (UniProt O82481); assay: as above

binding [1]: no binding | binding [2]: no binding | binding [3]: binds
B1: ICR3 (interactor of constitutively active ROP 3) fused to a half of YFP for BiFC (protein, UniProt Q9LSS5 1-564)
chain: T1 sequence

binding [4]: no binding | binding [5]: no binding
B2: ICR3, yeast two-hybrid fusion (protein, UniProt Q9LSS5 1-564)
chain: T1 sequence

binding [6]: no binding | binding [7]: no binding | binding [8]: no binding | binding [9]: binds | binding [5]: no binding
B3: ICR5, yeast two-hybrid fusion (protein, UniProt Q8VYU8 1-396)
chain: T2 sequence

binding [10]: no binding | binding (YN-ROP11): binds
B4: ICR5-YC (interactor of constitutively active ROP 5 fused to the C-terminal half of YFP) (protein, UniProt Q8VYU8 1-396)
chain: T2 sequence

binding [1]: no binding | binding [2]: no binding | binding [3]: binds
B5: ICR5 (interactor of constitutively active ROP 5) fused to a half of YFP for BiFC (protein, UniProt Q8VYU8 1-396)
chain: T2 sequence

binding [6]: no binding | binding [7]: no binding | binding [8]: no binding
B6: ICR2, yeast two-hybrid fusion (protein, UniProt Q9ZQC5 1-583)
chain: T5 sequence
